# Results from the supplement of paper PMC3334620.
# Over roughly 33,000 sequences, “E-score (-0.5 to 0.5)” has its median near -0.043; the highest 2% begin near 0.37. Some of the results follow.
# Target: T1, Upc2 (UniProt Q12151)
# T1 sequence: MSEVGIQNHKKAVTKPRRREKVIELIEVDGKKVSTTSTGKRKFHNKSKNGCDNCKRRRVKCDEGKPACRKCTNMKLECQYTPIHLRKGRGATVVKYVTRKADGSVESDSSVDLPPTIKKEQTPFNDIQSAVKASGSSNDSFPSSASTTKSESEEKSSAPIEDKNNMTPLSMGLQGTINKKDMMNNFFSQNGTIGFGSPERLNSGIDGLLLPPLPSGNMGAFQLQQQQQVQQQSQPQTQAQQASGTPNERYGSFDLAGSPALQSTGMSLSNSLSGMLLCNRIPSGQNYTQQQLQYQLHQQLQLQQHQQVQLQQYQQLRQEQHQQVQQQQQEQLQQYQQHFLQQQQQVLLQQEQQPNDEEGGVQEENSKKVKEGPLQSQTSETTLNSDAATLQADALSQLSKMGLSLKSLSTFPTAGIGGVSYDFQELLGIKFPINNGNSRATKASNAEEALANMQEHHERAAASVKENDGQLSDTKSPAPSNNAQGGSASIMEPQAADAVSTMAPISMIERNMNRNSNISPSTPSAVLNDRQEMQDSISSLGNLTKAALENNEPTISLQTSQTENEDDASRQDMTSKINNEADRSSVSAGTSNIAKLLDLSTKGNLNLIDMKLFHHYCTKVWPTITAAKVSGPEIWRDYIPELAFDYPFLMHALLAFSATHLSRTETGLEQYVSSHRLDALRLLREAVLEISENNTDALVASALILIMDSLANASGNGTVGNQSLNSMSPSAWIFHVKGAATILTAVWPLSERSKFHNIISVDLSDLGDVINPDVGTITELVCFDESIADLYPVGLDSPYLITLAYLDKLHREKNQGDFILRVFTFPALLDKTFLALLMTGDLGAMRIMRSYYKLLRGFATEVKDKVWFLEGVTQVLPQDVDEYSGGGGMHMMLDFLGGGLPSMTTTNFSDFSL
# Experiment: PBM E-score (8-mer binding enrichment) (E-score (-0.5 to 0.5)); higher = stronger / more preferred TF binding; most listed sequences are background and not binding sites
# Conditions: protein concentration: 200 nM; construct: GST-full length
# Summary of the method: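 Full-length yeast transcription factors or their DNA-binding domains, GST-tagged and expressed with PURExpress, were applied at about 100-200 nM to universal all-10-mer Agilent arrays. These arrays had been made double-stranded by primer extension on fresh or once-stripped slides. Detection used fluorescent anti-GST, normalisation used masliner, and E-scores for ungapped eight-base words pooled with reverse complements came from the Universal PBM Analysis Suite.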
row,Sequence,PBM E-score
1,CCTCTGAG,-0.226
2,ACGTGTCA,-0.111
3,GCGGTGAC,-0.263
4,TAAGGCCA,-0.013
5,CTACGCGC,0.0218
6,GCGATTGA,-0.0444
7,ACAGTTCT,-0.027
8,CGAGCAAG,0.129
9,TCTGCGAA,-0.155
10,GCGGGGCA,-0.0643
11,CAGCTTTC,-0.19
12,AACAGAAG,-0.23
13,ACTCAGTA,0.18
14,GACTCAGC,-0.198
15,CCACAAGC,-0.152
16,CAACGCCG,-0.0963
17,CCGTGTAA,-0.0233
18,CTACTCAA,-0.0687
19,AAGGCACC,-0.24
20,ACTCCGAG,-0.14
21,GCATCTAC,-0.0234
22,CTGCTCTC,-0.0481
23,GACGACCC,-0.207
24,CGCCGTAC,0.408
25,ACAAAACC,0.174

row,Sequence,PBM E-score
1,GACAGATC,-0.166
2,AACTCCCT,-0.131
3,CATTTATC,0.00114
4,ACCTCGGG,0.0963
5,GAGGGTAA,-0.00941
6,ACTCAATG,-0.103
7,ACGATTCT,0.268
8,GTTTTATA,0.271
9,ACTGTAGA,-0.0556
10,CGGGGTAC,0.183
11,CAGGTCGC,0.0637
12,TCAAATAA,0.0535
13,ATTTCTCA,-0.0957
14,ATGGGTTC,0.00547
15,AGGGTATA,0.102
16,GACCCAAC,-0.142
17,CCAAGGCA,-0.0817
18,ACCGTGTC,-0.215
19,ACACTTCC,-0.196
20,AATGTCGC,0.0832
21,GGGTCGAC,-0.159
22,CTCCGGCA,0.0044
23,CAGCGTAC,0.338
24,CTCCTTTC,-0.28
25,AAGCTTTA,0.166

row,Sequence,PBM E-score
1,ATATAGGA,-0.0231
2,GGTCGCAA,0.126
3,ATCACTTG,-0.0789
4,GCGGGGGA,-0.226
5,CCATCACC,-0.122
6,ATGTGATC,0.167
7,CGTATAAA,0.477
8,GCCTATCA,-0.187
9,CTTCGTTC,0.457
10,CGAGACCC,0.164
11,CGTGTTCC,0.0794
12,GCGTCTCC,-0.101
13,GAGACGAA,0.208
14,ACCCAACC,-0.00068
15,TCGGCAGA,-0.167
16,AAGAACTT,0.061
17,AGGTGCCA,-0.164
18,CTTGATGC,-0.232
19,AGATGGAG,-0.111
20,ATAATGAT,-0.0981
21,GAAAAAAC,0.161
22,CTTTCTCA,0.0661
23,ATACCACA,0.0024
24,ATACGGTA,0.406
25,GCGGTAGC,-0.0764

row,Sequence,PBM E-score
1,CACCTGGC,-0.284
2,GAGTAGGC,-0.18
3,GTATCTTA,0.232
4,CCAAATAA,-0.00161
5,ATGGTATG,-0.24
6,AAATCAAG,0.0576
7,ACATGACA,-0.0942
8,ACCTAACC,0.105
9,CCAATCTC,-0.145
10,AGGGGGAC,-0.164
11,ACCGCTTC,-0.203
12,CCAGGTGA,-0.158
13,TAGGGGGA,-0.194
14,AACTGGTA,-0.0126
15,TTTCAAAA,-0.0236
16,TCAGCAGA,-0.0227
17,AGTACACT,0.0402
18,GTTCCGAA,0.192
19,AACGAGGT,0.448
20,GTGTTTTA,0.0465
21,CCTCCGGA,-0.236
22,CCGAGCAG,0.0852
23,AACACCAG,-0.223
24,ATTAACCA,-0.195
25,GGGCATGA,-0.214

row,Sequence,PBM E-score
1,ACGAGGCT,0.406
2,CTAATGGA,-0.112
3,CTATATTC,0.115
4,CCCCGATC,-0.0699
5,TAAGTGGA,0.0993
6,AGTCGCTG,-0.123
7,ATTCAACC,-0.0794
8,ACAGTAAG,0.0279
9,ATCTCCAA,-0.294
10,CCGGAAGC,-0.113
11,CGGTCTCA,-0.143
12,GTCCCTCA,-0.141
13,AGTTAAAT,-0.0797
14,GTCAAGCA,-0.298
15,ATCATCAA,-0.071
16,ATTCTCTC,-0.0771
17,TCGATGAA,-0.114
18,TAACTGCA,-0.0611
19,CTACAATA,-0.0112
20,CGCTCGTA,0.466
21,AAGTGAGA,-0.0783
22,GCTACAAC,-0.173
23,TAGCGGGA,-0.024
24,GCAGGGGA,-0.184
25,AGCCTGGC,-0.218

row,Sequence,PBM E-score
1,CGGAACGC,0.243
2,GTAGCCCA,-0.137
3,AGTAGACC,0.0469
4,CACCCCTA,-0.103
5,CTGCCTGC,-0.227
6,CGGACCTC,0.0557
7,GCTATAGA,-0.156
8,CCGGAGTC,-0.217
9,AGTTTAAC,0.174
10,GATGCGGC,-0.239
11,CGAGACTA,0.208
12,CGCTTGGC,0.0589
13,CACCGCCG,0.0447
14,CAATATGA,0.029
15,GCTAAGAC,0.00142
16,CTGTATCC,-0.138
17,CAAGCTCG,0.173
18,CCGTTGGC,-0.199
19,ATAAACGC,0.344
20,ATACCCTA,0.0995
21,AATCTCTA,0.0874
22,CGTTGCAA,0.138
23,TAAACCGA,0.271
24,AGGGCCAT,-0.179
25,AGCCCTGC,-0.267

row,Sequence,PBM E-score
1,GTTCGTCA,-0.0278
2,CGTGGGGA,0.00245
3,CTAGGGCC,-0.167
4,CCGATCAC,0.102
5,TACGGCTA,0.231
6,ATCGGTTC,0.00873
7,AGCCTTCC,-0.249
8,CAGATGAG,-0.24
9,CTCATGTC,-0.133
10,GCAGGTGA,-0.376
11,AACGGCTT,0.14
12,AGCCATGG,-0.192
13,GCCTTTGA,-0.123
14,GTAGTTAA,0.0837
15,ACTTAGGA,-0.131
16,AGAGCTGG,-0.154
17,GGGGCCAA,-0.0411
18,GACTGTAA,0.067
19,GGAGCCCA,-0.245
20,ACCGGGAA,0.0828
21,GGGAGTAA,-0.194
22,CTATTCAA,-0.0594
